# Measurements: publication PMC4336329 (PLoS ONE, 2015)
# Hit rate of the full screen: of about 310,000 compounds, about 2,200 (0.71%) showed an effect of 50% or more. The effect is printed as a negative number. The list shows a part of the results.
# Target: human ether-à-go-go-related gene (hERG) potassium channel (human, UniProt Q12809)
# Assay: primary screen, population patch clamp on CHO cells stably expressing hERG
# Sequence of human ether-à-go-go-related gene (hERG) potassium channel (Q12809 whole entry, looked up): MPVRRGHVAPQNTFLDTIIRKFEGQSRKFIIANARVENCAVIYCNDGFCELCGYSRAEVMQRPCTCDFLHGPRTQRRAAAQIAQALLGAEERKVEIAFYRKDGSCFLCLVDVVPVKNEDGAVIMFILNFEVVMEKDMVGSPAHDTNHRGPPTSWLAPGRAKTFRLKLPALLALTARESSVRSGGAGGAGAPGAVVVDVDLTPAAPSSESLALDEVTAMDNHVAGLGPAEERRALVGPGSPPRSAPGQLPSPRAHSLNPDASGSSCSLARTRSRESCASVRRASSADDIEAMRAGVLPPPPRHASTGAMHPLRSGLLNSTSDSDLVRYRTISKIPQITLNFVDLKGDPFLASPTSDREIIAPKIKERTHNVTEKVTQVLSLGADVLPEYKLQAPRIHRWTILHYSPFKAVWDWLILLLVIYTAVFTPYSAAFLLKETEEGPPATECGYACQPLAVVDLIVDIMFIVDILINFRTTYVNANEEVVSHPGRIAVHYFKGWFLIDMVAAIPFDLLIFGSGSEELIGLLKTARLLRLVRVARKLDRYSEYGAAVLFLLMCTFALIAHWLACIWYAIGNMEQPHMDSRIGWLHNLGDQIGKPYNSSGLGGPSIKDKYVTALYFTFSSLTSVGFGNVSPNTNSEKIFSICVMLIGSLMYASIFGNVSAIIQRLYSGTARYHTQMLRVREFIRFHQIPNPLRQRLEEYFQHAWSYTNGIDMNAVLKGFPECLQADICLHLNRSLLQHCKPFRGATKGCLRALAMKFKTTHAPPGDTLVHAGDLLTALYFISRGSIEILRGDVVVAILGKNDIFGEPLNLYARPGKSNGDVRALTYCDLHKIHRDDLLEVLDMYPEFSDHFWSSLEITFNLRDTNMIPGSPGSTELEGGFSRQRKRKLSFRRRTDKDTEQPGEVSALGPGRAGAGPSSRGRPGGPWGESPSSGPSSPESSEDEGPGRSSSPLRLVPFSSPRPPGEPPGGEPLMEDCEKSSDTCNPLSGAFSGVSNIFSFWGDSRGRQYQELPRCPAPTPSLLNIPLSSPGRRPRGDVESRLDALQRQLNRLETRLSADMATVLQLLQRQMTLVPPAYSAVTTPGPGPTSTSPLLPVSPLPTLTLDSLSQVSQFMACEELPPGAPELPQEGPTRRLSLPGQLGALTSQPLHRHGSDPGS
row,Structure (SMILES),"hERG current change (%, negative = inhibition) at 1uM"
1,c1ccc(OCCCn2nnc(-c3ccc(N4CCOCC4)cc3)n2)cc1,20.5%
2,O=C1CCC(C(=O)N(Cc2ccco2)C2(C(=O)NC3CCCC3)CCCCC2)N1 (centres unmarked),14.5%
3,Cc1ccc2c(c1)N(CCCC(=O)NCC1COc3ccccc3O1)C(=O)CO2 (centres unmarked),-6%
4,CC(C)[C@H](NC(=O)N1CCn2c1nc1ccccc12)C(=O)N[C@H](C(=O)O)c1ccccc1,4.73%
5,Cc1ccc(NC(=O)c2ccc(Cn3cc(Br)cn3)o2)cc1,-2.24%
6,CC1(c2ccccc2Br)NC(=O)N(CC(=O)Nc2ccc(S(N)(=O)=O)cc2)C1=O (centres unmarked),12.7%
7,O=C(CCc1ccccc1)N1CCN(c2ccc([N+](=O)[O-])cc2)CC1,-67.4%
8,O=C(CN(Cc1ccccc1)S(=O)(=O)c1ccc(F)cc1)NCc1ccncc1,-9.19%
9,CCC(=O)c1ccc(OCc2ccc(C(=O)OC)cc2)c(OC)c1,-1.16%
10,COc1cc(OC)c(OC)cc1CNCc1ccco1,10.9%
11,COc1ccccc1OCCNC(=O)C1CC(=O)N(Cc2ccccc2)C1 (centres unmarked),4.51%
12,O=C(CC(=O)NC1CCCCC1)N/N=C/c1ccccc1[N+](=O)[O-],7.42%
13,O=C(Nc1cccc(O)c1)C1CC(c2cccc(Br)c2)=NO1 (centres unmarked),11.7%
14,Cc1cccc(C(=O)N2CCCC(Nc3ccc(F)c(F)c3)C2)n1 (centres unmarked),7.06%
15,O=C(O)C1=C[C@H](c2ccc(F)cc2)C[C@H](OCCCCO)O1,15.5%
16,CC(C)c1ccccc1OCC(=O)N1CCCCCCC1,16.9%
17,COc1ccccc1NC(=O)COc1ccc(C(=O)OCC(=O)N2CCCC2=O)cc1OC,10.5%
18,COC(=O)c1ccc(OCC(O)CN(CCO)CCO)cc1 (centres unmarked),5.26%
19,CC(=O)c1ccc2c(c1)Cc1cc(C(C)=O)ccc1-2,16.4%
20,O=C(CN1CCC(NC(=O)c2ccco2)CC1)Nc1cccc2ccccc12,6.35%
21,O=C(O)C(=O)O.O=C(c1ccccc1)N1CCN(CC2CC=CCC2)CC1 (centres unmarked),-9.14%
22,COc1cccc(N2CCN(S(=O)(=O)c3cccc4nsnc34)CC2)c1,0.986%

row,Structure (SMILES),"hERG current change (%, negative = inhibition) at 1uM"
1,O=C(NCCCN1CCCC1)c1ccc(CSCc2cccc(Cl)c2)o1,-30.4%
2,O=C(Nc1cccc(Cl)c1Cl)c1snnc1-c1ccccc1,9.21%
3,O=C(c1ccccc1)c1cccn1CC(=O)N1CCN(C2CCCCC2)CC1,-36.1%
4,Cc1ccc(OCC(=O)NNC(=O)c2ccoc2C)c(Br)c1,7.4%
5,S=C(c1ccc2c(c1)OCO2)N1CCCC1,10.6%
6,CC(C)C[C@H](NC(=O)c1nc[nH]c1C(=O)N1CCN(C(=O)OC(C)(C)C)CC1)C(=O)OCc1ccccc1,7.3%
7,CCCCOC(=O)c1ccc(NC(=O)CSCc2n[nH]c(=O)[nH]2)cc1,9.96%
8,COc1ccc(OC)c(NS(=O)(=O)c2ccc3c(c2)n(C)c(=O)n3C)c1,-3.36%
9,COc1ccc(Br)c2c1C(=O)CC2,4.91%
10,O=C(N/N=C/C=C/c1cccc([N+](=O)[O-])c1)C(O)c1ccccc1 (centres unmarked),8.51%
11,CC(=O)c1c(C)n(Cc2ccccc2)c2ccc(O)cc12,3.98%
12,NC(=O)CSP(=O)(c1ccccc1)c1ccccc1,13.1%
13,Cn1cnnc1SCc1ccc(C#N)cc1,10.6%
14,CCOC(=O)c1ccc(NC(=O)Nc2cc(C)on2)cc1,14.9%
15,Cc1ccc(NC(=O)C2C(c3ccccc3)C=CC(c3ccccc3)C2C(=O)O)cc1 (centres unmarked),10%
16,Cc1ccc(S(=O)(=O)N2CCN(C(=O)C3CCN(C(=O)c4ccc(F)cc4)CC3)CC2)c(C)c1,-16.8%
17,Cc1ccc(NC(=O)CN2C(=O)C3CCCCN3C(=O)c3ccccc32)cc1 (centres unmarked),3.84%
18,O=C(O)CCc1ccc(-c2cccs2)n1NC(=O)c1ccco1,10.2%
19,O=C(Nc1ccccc1Cl)c1cccc(NC(=O)c2cccs2)c1,-13.9%
20,Cc1ccc(NC(=O)c2ccc(-n3cccn3)c([N+](=O)[O-])c2)cc1,-15%
21,CCNc1nc(NCC)nc(OCCNS(=O)(=O)c2ccccc2)n1,16.2%
22,Cn1c2ccccc2n2c(=O)c(=O)n(CC(=O)c3ccc(F)cc3)nc12,6.52%

row,Structure (SMILES),"hERG current change (%, negative = inhibition) at 1uM"
1,COC(=O)c1ccc(N2C(=O)CC(N3CCC(O)(c4ccc(Br)cc4)CC3)C2=O)cc1 (centres unmarked),1.17%
2,Cc1nc(-c2cccnc2)sc1C(=O)Nc1ccc(C(F)(F)F)cc1,7.49%
3,CCn1c(CSc2nnc3ccccn23)nc2cc(C(=O)O)ccc21,4.68%
4,CCC(C)(C)n1nnnc1C(c1cc(OC)ccc1OC)N1CCC(C(N)=O)CC1 (centres unmarked),10.6%
5,COC(=O)C1C(=O)c2c([nH]c(C(=O)OCCSC)c2C)CC1C (centres unmarked),4%
6,NC(=O)c1nn(-c2ccccc2)nc1NC(=O)CN1CCCC1,3.23%
7,COc1ccc(C(C)C)cc1S(=O)(=O)n1cnc(C)c1,-3.56%
8,COc1ccc(CCNC(=O)Cc2ccc(OCc3ccccc3)c(OC)c2[N+](=O)[O-])cc1OCc1ccccc1,11%
9,Cc1ccc(S(=O)(=O)N(C)c2ccc(OCC(=O)Nc3nc4c(ccc5ccccc54)s3)cc2)cc1,7.09%
10,O=C1COc2ccc(S(=O)(=O)NCc3ccccc3)cc2N1,17.3%
11,CCN(CC)S(=O)(=O)c1cc(C(=O)Oc2ccccc2OC)ccc1OC,-18.7%
12,CCOC(=O)N1CCC(N2Cc3cccc(C(=O)NCc4ccccn4)c3C2=O)CC1,-4.03%
13,O=[N+]([O-])c1ccccc1S(=O)(=O)Nc1ccc(-c2ccc(N3CCOCC3)nn2)cc1,4.36%
14,Cn1c(N)c(C(=O)COC(=O)COc2ccc3ccccc3c2)c(=O)n(C)c1=O,-1.68%
15,Cc1ncc(CO)c2cc(C(N)=O)c(=Nc3ccccc3)oc12,-7.38%
16,CCCS(=O)(=O)c1cscc1NC(=O)c1c(-c2c(F)cccc2Cl)noc1C,8.5%
17,COc1ccc(/C=C/C(=O)NCc2ccccn2)cc1,1.42%
18,COc1ccc(S(=O)(=O)c2ccccc2)cc1NC(=O)c1c(F)cccc1F,9.35%
19,O=C(CSc1nnc(-c2ccncc2)n1-c1ccc(Cl)cc1)NCc1cccs1,5.9%
20,Cn1c(=O)c2c(nc(CN3CCc4ccccc4C3)n2Cc2ccc(F)cc2)n(C)c1=O,3.26%
21,Cc1ccccc1OCC(=O)Nc1nnc(COc2ccccc2)s1,16.4%
22,CCCc1nc2ccccc2c(=O)n1CC(=O)c1ccc(OC)cc1,12.3%

row,Structure (SMILES),"hERG current change (%, negative = inhibition) at 1uM"
1,CC(C)C(=O)Nc1cccc(NC(=S)NC(=O)c2ccccc2Cl)c1,-4.92%
2,O=C(CSc1ncn(-c2ccccc2)n1)Nc1nncs1,-5.58%
3,CCn1c(-c2cc(OC)c(OC)c(OC)c2)n[nH]c1=S,12%
4,OCCOCCN1CCN(C(=S)Nc2ccccc2)CC1,5.76%
5,O=C(CSc1nc2cc(S(=O)(=O)N3CCOCC3)ccc2o1)Nc1c(F)cccc1F,9.51%
6,Clc1ccc(OCc2nn3c(-c4ccccc4)nnc3s2)c(Cl)c1,-0.224%
7,Cc1ccc(/C([O-])=C(/C(=S)NCc2ccco2)[n+]2ccccc2)cc1[N+](=O)[O-],6.35%
8,C=CCn1c(SCC(=O)NC2CCS(=O)(=O)C2)nnc1-c1cc2c(s1)CCC(CC)C2 (centres unmarked),6.6%
9,CCOc1ccc(NC(=O)C(=S)NC2CCCCC2)cc1,11.2%
10,CC1(C)C(=O)Nc2ccccc2N1C(=O)CSc1nnc2ccccn12,3.25%
11,COc1ccc(/C=N/NC(=O)c2ccc(C)nc2)cc1O,14.2%
12,COCCN1C(=O)C(=O)/C(=C(/O)c2cccc(S(=O)(=O)N(C)C)c2)C12C(=O)N(C)c1ccccc12 (centres unmarked),9.86%
13,CC1(C)CC(=O)c2cnc(NCC3CCCO3)nc2C1 (centres unmarked),11.7%
14,COc1cccc(OC)c1C(=O)Nc1ccc2c(c1)CCCN2S(=O)(=O)c1ccc(C)cc1,9.28%
15,Cc1nn(C)c(C)c1S(=O)(=O)N1CCCC(C(=O)N2CCN(c3ccccc3)CC2)C1 (centres unmarked),5.62%
16,CCc1cc2c(SCC(=O)c3ccc(C)cc3)ncnc2s1,14.8%
17,O=C(NCc1ccccc1)C1CCC(CNc2c(N3CCCCC3)c(=O)c2=O)CC1 (centres unmarked),19.8%
18,Cc1ccc2oc(C(=O)N3CCC(O)(c4ccccc4)CC3)c(C)c2c1,9.53%
19,CC(C)CC(=O)OC1C(N2CCOCC2)c2c(ccc(/C=C/C(=O)N3CCOCC3)c2O)OC1(C)C (centres unmarked),-3.49%
20,CCOc1ccc(CNS(=O)(=O)c2ccc(-c3ccc(=O)[nH]n3)o2)cc1OC,15.1%
